A lower IC50 marks a more sensitive line; a fit beyond the top or the lowest dose is shown as a bound at that dose. The AUC spans the tested range (256-fold, ending at the top dose) of the same fit; values near 1 show little effect. For part of these data: Any top dose called inferred comes from the curve model; the source does not state it. For part of these data: Where an entry number is given, a second screen of the drug exists; the two often differ.
What was measured:
Experiment in all cases: Viability of human cancer cell lines after 72 h of drug (GDSC screen)
Belinostat = compound: O=C(/C=C/c1cccc(S(=O)(=O)Nc2ccccc2)c1)NO [Belinostat]; conditions: top dose 20 µM; top dose inferred
Method: (§1)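 Human cancer cell lines in 384-well plates, medium with 10% serum, drug for 72 h over a 256-fold dose range (nine 2-fold or five 4-fold steps up to the top dose). Adherent lines were fixed and stained with the nucleic acid dye Syto60, suspension lines read with resazurin; signal relative to control wells, capped at 0 and 100%. One two-parameter sigmoid per drug and line, fitted in a mixed model over all curves with the slope shared within a line.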

JNJ-26854165 = compound: c1ccc2c(CCNc3ccc(Nc4ccncc4)cc3)c[nH]c2c1 [JNJ-26854165]; conditions: top dose 10 µM
Method: as §1

JNK Inhibitor VIII = compound: CCOc1nc(NC(=O)Cc2cc(OC)ccc2OC)cc(N)c1C#N [JNK Inhibitor VIII]; conditions: top dose 10 µM; top dose inferred
Method: as §1

NSC-207895 = compound: CN1CCN(c2ccc([N+](=O)[O-])c3no[n+]([O-])c23)CC1 [NSC-207895]; conditions: top dose 20 µM; top dose inferred
Method: as §1

JQ1 = compound: Cc1sc2c(c1C)C(c1ccc(Cl)cc1)=N[C@@H](CC(=O)OC(C)(C)C)c1nnc(C)n1-2 [JQ1]
Method: as §1

AMG-706 = compound: CC1(C)CNc2cc(NC(=O)c3cccnc3NCc3ccncc3)ccc21 [AMG-706]; conditions: top dose 2 µM; top dose inferred
Method: as §1

OSI-906 = compound: C[C@]1(O)C[C@@H](c2nc(-c3ccc4ccc(-c5ccccc5)nc4c3)c3c(N)nccn32)C1 [OSI-906]; conditions: top dose 2.56 µM; top dose inferred
Method: as §1

YM155 = compound: COCC[n+]1c2c(n(Cc3cnccn3)c1C)C(=O)c1ccccc1C2=O [YM155]; conditions: top dose 5.12 µM
Method: as §1

SB-715992 = compound: Cc1ccc(C(=O)N(CCCN)[C@@H](c2nc3cc(Cl)ccc3c(=O)n2Cc2ccccc2)C(C)C)cc1 [SB-715992]; conditions: top dose 0.128 µM; top dose inferred
Method: as §1

Docetaxel = compound: CC(=O)O[C@@]12CO[C@@H]1C[C@H](O)[C@@]1(C)C(=O)[C@H](O)C3=C(C)[C@@H](OC(=O)[C@H](O)[C@@H](NC(=O)OC(C)(C)C)c4ccccc4)C[C@@](O)([C@@H](OC(=O)c4ccccc4)[C@H]21)C3(C)C [Docetaxel]; conditions: top dose 0.0125 µM
Method: as §1

FTI-277 = compound: COC(=O)[C@H](CCSC)NC(=O)c1ccc(NC[C@@H](N)CS)cc1-c1ccccc1 [FTI-277]; conditions: top dose 1.024 µM; top dose inferred
Method: as §1

[1] = top dose 1 µM, screen: GDSC drug entry 1218, top dose inferred
[2] = top dose 2.56 µM, screen: GDSC drug entry 163

Cell Line	AUC (Belinostat)	IC50 (Belinostat) [µM]	AUC (JNJ-26854165)	IC50 (JNJ-26854165) [µM]	AUC (JNK Inhibitor VIII)	IC50 (JNK Inhibitor VIII) [µM]	AUC (NSC-207895)	IC50 (NSC-207895) [µM]	AUC (JQ1; [1])	IC50 (JQ1; [1]) [µM]	AUC (JQ1; [2])	IC50 (JQ1; [2]) [µM]	AUC (AMG-706)	IC50 (AMG-706) [µM]	AUC (OSI-906)	IC50 (OSI-906) [µM]	AUC (YM155)	IC50 (YM155) [µM]	AUC (SB-715992)	IC50 (SB-715992) [µM]	AUC (Docetaxel)	IC50 (Docetaxel) [µM]	AUC (FTI-277)	IC50 (FTI-277) [µM]
SK-N-SH (neuroblastoma, adherent)	0.308	0.364	0.883	> 10	0.957	> 10	0.913	> 20	0.986	> 1	0.646	0.405	0.922	> 2	0.569	0.246	0.901	> 5.12	0.91	> 0.128	0.956	> 0.0125	0.965	> 1.02
SK-OV-3 (ovary, adherent)	0.341	0.403	0.92	> 10	0.933	> 10	0.959	> 20	0.958	> 1	0.523	0.187	0.937	> 2	0.883	> 2.56	0.043	< 0.02	0.52	0.00919	0.789	0.00715	0.948	> 1.02
SKG-IIIa (cervix, adherent)	0.889	> 20	0.859	> 10	0.982	> 10	0.981	> 20	0.925	> 1	0.846	> 2.56	0.981	> 2	0.977	> 2.56	0.801	3.56	0.982	> 0.128	0.688	0.00317	0.978	> 1.02
SKN (uterus, adherent)	0.466	0.987	0.871	> 10	0.938	> 10	0.724	6.28	0.955	> 1	0.825	1.99	0.782	1.03	0.971	> 2.56	0.039	< 0.02	0.897	> 0.128	0.595	0.0015	0.979	> 1.02
SKN-3 (head and neck, adherent)	0.51	1.34	0.85	9.75	0.915	> 10	0.669	4.04	0.981	> 1	0.911	> 2.56	0.979	> 2	0.961	> 2.56	0.037	< 0.02	0.959	> 0.128	0.68	0.00275	0.973	> 1.02
SNU-182 (liver, adherent)	0.37	0.536	0.884	> 10	0.905	> 10	0.952	> 20	0.908	> 1	0.606	0.317	0.936	> 2	0.978	> 2.56	0.266	0.0662	0.582	0.0136	0.553	0.0011	0.985	> 1.02
SNU-387 (liver, adherent)	0.271	0.252	0.883	> 10	0.965	> 10	0.847	18	0.982	> 1	0.539	0.207	0.962	> 2	0.687	0.577	0.053	< 0.02	0.969	> 0.128	0.629	0.00187	0.944	> 1.02
SNU-423 (liver, adherent)	0.313	0.34	0.888	> 10	0.96	> 10	0.582	2.17	0.851	0.974	0.691	0.604	0.922	> 2	0.829	1.97	0.035	< 0.02	0.766	0.0552	0.785	0.00632	0.94	> 1.02
SNU-449 (liver, adherent)	0.76	7.65	0.888	> 10	0.979	> 10	0.961	> 20	0.941	> 1	0.804	1.42	0.986	> 2	0.865	> 2.56	0.151	0.0232	0.982	> 0.128	0.986	> 0.0125	0.981	> 1.02
SU8686 (pancreas, adherent)	0.63	3	0.931	> 10	0.985	> 10	0.984	> 20	0.984	> 1	0.657	0.462	0.986	> 2	0.974	> 2.56	0.036	< 0.02	0.955	> 0.128	0.769	0.00529	0.968	> 1.02
SUIT-2 (pancreas, adherent)	0.408	0.692	0.897	> 10	0.972	> 10	0.96	> 20	0.985	> 1	0.441	0.11	0.916	> 2	0.77	1.02	0.143	0.0228	0.904	> 0.128	0.959	> 0.0125	0.971	> 1.02
SW13 (adrenal gland, adherent)	0.913	> 20	0.858	8.43	0.987	> 10	0.982	> 20	0.954	> 1	0.791	1.17	0.968	> 2	0.947	> 2.56	0.717	1.33	0.986	> 0.128	0.657	0.00215	0.948	> 1.02
SW48 (large intestine, adherent)	0.438	0.849	0.954	> 10	0.986	> 10	0.924	> 20	0.983	> 1	0.784	1.08	0.967	> 2	0.962	> 2.56	0.214	0.0467	0.774	0.0498	0.606	0.00152	0.987	> 1.02
SW620 (large intestine, adherent)	0.359	0.535	0.961	> 10	0.988	> 10	0.973	> 20	0.989	> 1	0.875	2.02	0.99	> 2	0.95	> 2.56	0.025	< 0.02	0.76	0.0403	0.811	0.0057	0.988	> 1.02
SW756 (cervix, adherent)	0.704	5.31	0.863	> 10	0.904	> 10	0.833	16.5	0.933	> 1	0.893	> 2.56	0.888	> 2	0.982	> 2.56	0.043	< 0.02	0.983	> 0.128	0.626	0.00187	0.985	> 1.02
SW780 (bladder, adherent)	0.944	> 20	0.829	7.02	0.955	> 10	0.986	> 20	0.944	> 1	0.745	0.867	0.963	> 2	0.986	> 2.56	0.602	0.626	0.972	> 0.128	0.529	0.000943	0.959	> 1.02
SW948 (large intestine, adherent)	0.46	0.925	0.965	> 10	0.981	> 10	0.972	> 20	0.979	> 1	0.81	2.22	0.982	> 2	0.97	> 2.56	0.878	> 5.12	0.947	> 0.128	0.949	> 0.0125	0.982	> 1.02
SW1271 (small cell lung carcinoma, adherent)	0.452	0.908	0.928	> 10	0.984	> 10	0.837	16.4	0.955	> 1	0.779	1.21	0.984	> 2	0.97	> 2.56	0.037	< 0.02	0.926	> 0.128	0.752	0.00471	0.939	> 1.02
SW1417 (large intestine, adherent)	0.52	1.43	0.952	> 10	0.976	> 10	0.982	> 20	0.885	> 1	0.686	0.585	0.949	> 2	0.984	> 2.56	0.203	0.0353	0.985	> 0.128	0.653	0.00224	0.986	> 1.02
SW1710 (bladder, adherent)	0.436	0.833	0.849	7.83	0.97	> 10	0.853	16.4	0.969	> 1	0.355	0.0628	0.981	> 2	0.862	2.31	0.049	< 0.02	0.829	0.0834	0.488	0.000725	0.873	> 1.02
Saos-2 (osteosarcoma, adherent)	0.981	> 20	0.904	> 10	0.98	> 10	0.981	> 20	0.978	> 1	0.454	0.114	0.978	> 2	0.61	0.364	0.95	> 5.12	0.974	> 0.128	0.648	0.0024	0.886	> 1.02
T84 (large intestine, adherent)	0.523	1.45	0.982	> 10	0.983	> 10	0.884	> 20	0.987	> 1	0.974	> 2.56	0.988	> 2	0.732	0.744	0.235	0.0538	0.904	> 0.128	0.952	> 0.0125	0.989	> 1.02
